# In the supplement of paper PMC8728848:
# The list shows a part of the results.
# B1: F17bG (Escherichia coli), Q47200 (protein)
# chain: MTNFYKVFLAVFILVCCNISHAVVSFIGSTENDVGPSQGSYSSTHAMDNLPFVYNTGYNIGYQNANVWRIGGGFCVGLDGKVDLPVVGSLDGQSIYGLTEEVGLLIWMGDTNYSRGTAMSGNSWENVFSGWCVGNYLSTQGLSVHVRPVILKRNSSAQYSVQKTSIGSIRMRPYNGSSAGSVQTTVNFSLNPFTLNDTVTSCRLLTPSAVNVSLAAISAGQLPSSGDEVVAGTTSLKLQCDAGVTVWATLTDATTPSNRSDILTLTGASTATGVGLRIYKNTDSTPLKFGPDSPVKGNENQWQLSTGTETSPSVRLYVKYVNTGEGINPGTVNGISTFTFSYQ
# Experiments:
# Test in all cases: glycan array binding signal (z-score within array); higher = stronger binding
# Conditions in all cases: glycan notation: IUPAC condensed, linker removed
# [1] = target: Gal(b1-4)Glc
# How it was run: (§1)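 The binding signal is a Z-score computed within each array. Data were drawn from 3228 arrays in the Consortium for Functional Glycomics database, restricted to those with a known protein sequence. Scores were averaged over arrays of the same protein sequence at different concentrations or buffers, and over linkers, and negative values can be taken as non-binding.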
# [2] = target: Gal(b1-4)Glc6S
# How it was run: as §1
# [3] = target: Gal(b1-4)GlcNAc
# How it was run: as §1
# [4] = target: Gal(b1-4)GlcNAc(b1-2)Man(a1-3)[Gal(b1-4)GlcNAc(b1-2)Man(a1-6)]Man(b1-4)GlcNAc(b1-4)GlcNAc
# How it was run: as §1
# [5] = target: Gal(b1-4)GlcNAc(b1-3)Gal(b1-4)Glc
# How it was run: as §1
# [6] = target: Gal(b1-4)GlcNAc(b1-3)Gal(b1-4)GlcNAc
# How it was run: as §1
# [7] = target: Gal(b1-4)GlcNAc(b1-3)Gal(b1-4)GlcNAc(b1-3)Gal(b1-4)GlcNAc
# How it was run: as §1
# [8] = target: Gal(b1-4)GlcNAc(b1-3)Gal(b1-4)[Fuc(a1-3)]GlcNAc(b1-3)Gal(b1-4)[Fuc(a1-3)]GlcNAc
# How it was run: as §1
# [9] = target: Gal(b1-4)GlcNAc(b1-3)GalNAc
# How it was run: as §1
# [10] = target: Gal(b1-4)GlcNAc(b1-3)[Gal(b1-4)GlcNAc(b1-6)]GalNAc
# How it was run: as §1
# [11] = target: Gal(b1-4)GlcNAc(b1-6)Gal(b1-4)GlcNAc(b1-6)GalNAc
# How it was run: as §1
# [12] = target: Gal(b1-4)GlcNAc(b1-6)GalNAc
# How it was run: as §1
# [13] = target: Gal(b1-4)GlcNAc(b1-6)[Gal(b1-3)]GalNAc
# How it was run: as §1
# [14] = target: Gal3S(b1-3)GalNAc
# How it was run: as §1
# [15] = target: Gal3S(b1-3)GlcNAc
# How it was run: as §1
# [16] = target: Gal3S(b1-3)[Fuc(a1-4)]GlcNAc
# How it was run: as §1
# [17] = target: Gal3S(b1-4)Glc
# How it was run: as §1
# [18] = target: Gal3S(b1-4)Glc6S
# How it was run: as §1
# [19] = target: Gal3S(b1-4)GlcNAc
# How it was run: as §1
# [20] = target: Gal3S(b1-4)GlcNAc6S
# How it was run: as §1
# [21] = target: Gal3S6S(b1-4)GlcNAc
# How it was run: as §1
# [22] = target: Gal3S6S(b1-4)GlcNAc6S
# How it was run: as §1
# [23] = target: Gal4S(b1-4)GlcNAc
# How it was run: as §1
# [24] = target: Gal4S6S(b1-4)GlcNAc
# How it was run: as §1
# [25] = target: Gal6S(b1-4)Glc
# How it was run: as §1
# [26] = target: Gal6S(b1-4)Glc6S
# How it was run: as §1
# [27] = target: Gal6S(b1-4)GlcNAc
# How it was run: as §1
# [28] = target: GalNAc(a1-3)Gal
# How it was run: as §1
# [29] = target: GalNAc(a1-3)GalNAc
# How it was run: as §1
# [30] = target: GalNAc(b1-3)Gal(a1-4)Gal(b1-4)GlcNAc
# How it was run: as §1
# [31] = target: GalNAc(b1-3)GalNAc
# How it was run: as §1
# [32] = target: GalNAc(b1-4)GlcNAc
# How it was run: as §1
# [33] = target: Glc(a1-4)Glc
# How it was run: as §1
# [34] = target: Glc(a1-6)Glc(a1-6)Glc
# How it was run: as §1
# [35] = target: Glc(b1-4)Glc
# How it was run: as §1
# [36] = target: Glc(b1-6)Glc
# How it was run: as §1
# [37] = target: GlcA(b1-3)Gal
# How it was run: as §1
# [38] = target: GlcA(b1-6)Gal
# How it was run: as §1
binder,measurement,setting,value
B1,glycan array binding signal (z-score),[1],-0.605
same,glycan array binding signal (z-score),[2],-0.036
same,glycan array binding signal (z-score),[3],-0.375
same,glycan array binding signal (z-score),[4],-0.694
same,glycan array binding signal (z-score),[5],-0.088
same,glycan array binding signal (z-score),[6],0.185
same,glycan array binding signal (z-score),[7],-0.525
same,glycan array binding signal (z-score),[8],-0.475
same,glycan array binding signal (z-score),[9],-0.064
same,glycan array binding signal (z-score),[10],-0.53
same,glycan array binding signal (z-score),[11],-0.543
same,glycan array binding signal (z-score),[12],-0.71
same,glycan array binding signal (z-score),[13],-0.553
same,glycan array binding signal (z-score),[14],-0.037
same,glycan array binding signal (z-score),[15],-0.051
same,glycan array binding signal (z-score),[16],0.086
same,glycan array binding signal (z-score),[17],0.202
same,glycan array binding signal (z-score),[18],0.563
same,glycan array binding signal (z-score),[19],-0.092
same,glycan array binding signal (z-score),[20],1.03
same,glycan array binding signal (z-score),[21],0.748
same,glycan array binding signal (z-score),[22],0.801
same,glycan array binding signal (z-score),[23],-0.267
same,glycan array binding signal (z-score),[24],0.82
same,glycan array binding signal (z-score),[25],-0.028
same,glycan array binding signal (z-score),[26],0.5
same,glycan array binding signal (z-score),[27],0.145
same,glycan array binding signal (z-score),[28],-0.61
same,glycan array binding signal (z-score),[29],-0.634
same,glycan array binding signal (z-score),[30],-0.579
same,glycan array binding signal (z-score),[31],4.47
same,glycan array binding signal (z-score),[32],-0.391
same,glycan array binding signal (z-score),[33],-0.639
same,glycan array binding signal (z-score),[34],-0.606
same,glycan array binding signal (z-score),[35],-0.434
same,glycan array binding signal (z-score),[36],-0.419
same,glycan array binding signal (z-score),[37],-0.13
same,glycan array binding signal (z-score),[38],-0.278
